{"source": "paper PMC4336329", "about": "(PLoS ONE, 2015)", "note": "The campaign covered roughly 310,000 compounds. About 2,200 (0.71%) showed an effect of 50% or more. Effects have a minus sign here. The list shows a part of the results.", "data": [{"biological_target": "human ether-à-go-go-related gene (hERG) potassium channel (human, UniProt Q12809)", "sequence (Q12809 whole entry, looked up)": "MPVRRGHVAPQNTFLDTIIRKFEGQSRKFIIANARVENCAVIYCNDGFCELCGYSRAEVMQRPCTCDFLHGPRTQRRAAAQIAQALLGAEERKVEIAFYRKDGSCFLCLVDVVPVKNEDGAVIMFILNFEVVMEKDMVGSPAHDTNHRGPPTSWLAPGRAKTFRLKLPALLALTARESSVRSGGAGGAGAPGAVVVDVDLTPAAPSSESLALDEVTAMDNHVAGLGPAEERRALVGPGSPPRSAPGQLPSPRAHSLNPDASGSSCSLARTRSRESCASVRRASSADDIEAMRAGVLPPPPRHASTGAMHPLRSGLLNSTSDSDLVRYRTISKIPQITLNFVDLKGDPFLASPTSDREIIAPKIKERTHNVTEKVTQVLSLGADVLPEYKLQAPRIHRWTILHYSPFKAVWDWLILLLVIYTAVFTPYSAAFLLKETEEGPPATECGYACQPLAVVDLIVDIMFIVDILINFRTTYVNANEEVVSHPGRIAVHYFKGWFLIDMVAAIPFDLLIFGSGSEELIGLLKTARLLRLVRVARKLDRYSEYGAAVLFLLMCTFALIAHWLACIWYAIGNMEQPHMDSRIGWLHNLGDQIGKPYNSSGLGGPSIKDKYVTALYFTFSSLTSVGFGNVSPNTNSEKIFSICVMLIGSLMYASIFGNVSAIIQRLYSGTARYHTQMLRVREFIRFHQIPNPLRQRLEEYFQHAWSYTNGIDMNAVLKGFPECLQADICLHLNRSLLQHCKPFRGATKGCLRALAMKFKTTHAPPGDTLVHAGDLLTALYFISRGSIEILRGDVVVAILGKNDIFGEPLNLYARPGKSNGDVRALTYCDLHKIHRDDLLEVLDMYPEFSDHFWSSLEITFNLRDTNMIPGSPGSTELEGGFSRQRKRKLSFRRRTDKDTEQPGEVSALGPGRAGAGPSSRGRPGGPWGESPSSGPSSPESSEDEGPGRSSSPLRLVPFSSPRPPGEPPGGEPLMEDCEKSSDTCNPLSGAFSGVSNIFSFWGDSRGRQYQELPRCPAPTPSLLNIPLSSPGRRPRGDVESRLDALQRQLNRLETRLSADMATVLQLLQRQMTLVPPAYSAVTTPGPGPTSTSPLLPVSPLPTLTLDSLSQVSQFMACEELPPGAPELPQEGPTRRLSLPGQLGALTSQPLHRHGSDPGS", "experiment": "primary screen, population patch clamp on CHO cells stably expressing hERG", "units": {"hERG current change (%, negative = inhibition) at 1uM": "%"}, "values": [{"smiles": "OC1(c2ccccc2Cl)NN=C2CCCCCN21", "note": "(stereo not shown)", "hERG current change (%, negative = inhibition) at 1uM": 9.28}, {"smiles": "Cc1ccccc1OCC(=O)NC(=S)Nc1ccc(N2CCOCC2)c(Cl)c1", "hERG current change (%, negative = inhibition) at 1uM": 9.77}, {"smiles": "CN(CC(=O)Nc1ccc(Cl)cc1)C(=O)c1ccc(N2CCCC2=O)cc1", "hERG current change (%, negative = inhibition) at 1uM": 9.27}, {"smiles": "COc1cc(/C=N/NC(=O)c2cccnc2)ccc1OS(=O)(=O)c1ccc(C)cc1", "hERG current change (%, negative = inhibition) at 1uM": 8.24}, {"smiles": "Cc1ccc(Nc2nc(-c3c(C)n(C)n(-c4ccccc4)c3=O)c(C)s2)cc1", "hERG current change (%, negative = inhibition) at 1uM": 6.69}, {"smiles": "CN1CCN(C(=O)C2CC(=O)N(c3ccc(F)c(Cl)c3)C2)CC1", "note": "(stereo not shown)", "hERG current change (%, negative = inhibition) at 1uM": 13.5}, {"smiles": "CCOc1c(Br)cc(Br)cc1/C=C1\\SC(N)=NC1=O", "hERG current change (%, negative = inhibition) at 1uM": 17.8}, {"smiles": "CN(C)CCN1C(=O)c2oc3ccccc3c(=O)c2C1c1ccc(F)cc1", "note": "(stereo not shown)", "hERG current change (%, negative = inhibition) at 1uM": -2.93}, {"smiles": "CC(C)C(=O)Nc1ccc(NC(=O)c2ccco2)cn1", "hERG current change (%, negative = inhibition) at 1uM": 8.74}, {"smiles": "CCn1c(SCC(=O)N/N=C/C=C/c2ccco2)nnc1-c1ccccc1", "hERG current change (%, negative = inhibition) at 1uM": -1.54}, {"smiles": "COc1ccc(Cc2nc3ccc(C(=O)NCC4CCOCC4)cc3o2)cc1OC", "hERG current change (%, negative = inhibition) at 1uM": 12.6}, {"smiles": "Cc1ccc(C(=O)C(=O)c2ccc(C)c(N)c2)cc1N", "hERG current change (%, negative = inhibition) at 1uM": 4.71}, {"smiles": "Nc1nonc1C(=O)N1CCCCC1", "hERG current change (%, negative = inhibition) at 1uM": 3.32}, {"smiles": "CC(C)n1c(N2CCN(C(=O)c3cccs3)CC2)nc2ccccc21", "hERG current change (%, negative = inhibition) at 1uM": -26.9}, {"smiles": "N#CC1=C(N)OC2=C(CCc3ccccc32)C1c1ccccc1", "note": "(stereo not shown)", "hERG current change (%, negative = inhibition) at 1uM": 2.68}, {"smiles": "N#CC1=C2C=Cc3ccccc3N2CCCC1=O", "hERG current change (%, negative = inhibition) at 1uM": 3.2}, {"smiles": "CC(Sc1nc(N2CCCCC2)c2c(c1C#N)CCCC2)C(=O)O", "note": "(stereo not shown)", "hERG current change (%, negative = inhibition) at 1uM": 16.5}, {"smiles": "COc1cc(C(=O)NCC(=O)NCCN2C(=O)S/C(=C\\c3ccc4c(c3)OCO4)C2=O)cc(OC)c1OC", "hERG current change (%, negative = inhibition) at 1uM": 16.1}, {"smiles": "Clc1ccc(-c2nc(-c3cnccn3)no2)cc1", "hERG current change (%, negative = inhibition) at 1uM": 10.9}, {"smiles": "CCC(Oc1ccccc1)C(=O)Nc1cc(C)on1", "note": "(stereo not shown)", "hERG current change (%, negative = inhibition) at 1uM": 3.64}, {"smiles": "CC(C1CC1)N(Cc1ccccc1)C(=S)Nc1ccccc1Cl", "note": "(stereo not shown)", "hERG current change (%, negative = inhibition) at 1uM": 3.13}, {"smiles": "Cc1nn(C(C)C(=O)N2CCc3ccccc3C2)c(=O)c2cc3occc3n12", "note": "(stereo not shown)", "hERG current change (%, negative = inhibition) at 1uM": -2.66}, {"smiles": "CC(C)(C)NC(=O)CC(CC(=O)O)c1ccccc1", "note": "(stereo not shown)", "hERG current change (%, negative = inhibition) at 1uM": 11.3}, {"smiles": "CCOC(=O)/C(C(=O)Nc1ccc(Cl)cc1Cl)=C1/NC(C)(C)Cc2ccccc21", "hERG current change (%, negative = inhibition) at 1uM": 3.52}, {"smiles": "CON1C(=O)C(=O)N(OC)C(C)(C)C1(C)C", "hERG current change (%, negative = inhibition) at 1uM": 9.25}, {"smiles": "Cc1ccccc1-n1c(Cn2c(=O)sc3ccccc32)nnc1SCC(=O)N1CCCC1", "hERG current change (%, negative = inhibition) at 1uM": 3.49}, {"smiles": "CCN1CCN(C(=O)Cn2ncc3c2-c2ccccc2OC3)CC1", "hERG current change (%, negative = inhibition) at 1uM": 0.123}, {"smiles": "O=C(NCc1ccccn1)Nc1ccc(F)cc1F", "hERG current change (%, negative = inhibition) at 1uM": 6.04}, {"smiles": "CCOc1ccc(N=C2NC(=O)S/C2=C\\c2ccc(N(C)C)cc2)cc1", "hERG current change (%, negative = inhibition) at 1uM": -6.59}, {"smiles": "Cc1nc(NS(=O)(=O)c2ccccc2)sc1NC(=O)Nc1ccc(Cl)cc1", "hERG current change (%, negative = inhibition) at 1uM": 8.65}, {"smiles": "CCS(=O)(=O)Nc1cc2c3c(c1)CCN3C(=O)CC2", "hERG current change (%, negative = inhibition) at 1uM": -6.92}, {"smiles": "COc1ccc(C(=O)CSc2nnc(CNC(=O)c3ccccc3)o2)cc1", "hERG current change (%, negative = inhibition) at 1uM": 9.7}, {"smiles": "CCOC(=O)CN1C(=O)N[C@@H](c2ccco2)C(C(=O)OC)=C1C", "hERG current change (%, negative = inhibition) at 1uM": 19.5}, {"smiles": "COC(=O)[C@@]1(Cc2ccc(OC)cc2)[C@H]2c3cc(C(=O)N(C)C)n(C[C@H](O)CO)c3C[C@H]2CN1C(=O)c1ccccc1", "hERG current change (%, negative = inhibition) at 1uM": 16.5}, {"smiles": "Nc1ccc(N2CCN(C(=O)c3ccco3)CC2)cc1", "hERG current change (%, negative = inhibition) at 1uM": 14.5}, {"smiles": "NC(N)=NN=C1CCC(c2ccccc2)CC1", "note": "(stereo not shown)", "hERG current change (%, negative = inhibition) at 1uM": 19.2}, {"smiles": "c1coc(CNc2ncnc3[nH]ncc23)c1", "hERG current change (%, negative = inhibition) at 1uM": 18.2}, {"smiles": "Cc1ccc(Oc2ncccc2/C=N/O)cc1", "hERG current change (%, negative = inhibition) at 1uM": 6}, {"smiles": "CC(=O)Nc1ccc(S(=O)(=O)Oc2ccccc2N2CCCCC2)cc1", "hERG current change (%, negative = inhibition) at 1uM": 5.56}, {"smiles": "CN(CCNC(=O)c1ccc(CS(=O)(=O)c2ccc(Br)cc2)o1)CCc1ccccc1", "hERG current change (%, negative = inhibition) at 1uM": -42}, {"smiles": "Cc1ccnc(NS(=O)(=O)c2ccccc2)c1", "hERG current change (%, negative = inhibition) at 1uM": 14.6}, {"smiles": "COc1cc(NC(=O)C2CSC3(C)CCC(=O)N23)c(OC)cc1Cl", "note": "(stereo not shown)", "hERG current change (%, negative = inhibition) at 1uM": 12.1}, {"smiles": "Cc1ccc(S(=O)(=O)CC(=O)Nc2ncc([N+](=O)[O-])s2)cc1", "hERG current change (%, negative = inhibition) at 1uM": 22}, {"smiles": "NC(=O)CC(NC(=O)Cc1cccc2ccccc12)c1ccc(NC2CCCCCC2)c([N+](=O)[O-])c1", "note": "(stereo not shown)", "hERG current change (%, negative = inhibition) at 1uM": 5.16}, {"smiles": "CCOC(=O)c1ccc(NS(=O)(=O)c2c(N)[nH]c(=O)[nH]c2=O)cc1", "hERG current change (%, negative = inhibition) at 1uM": 6.79}, {"smiles": "CCCCC(=O)Nc1ccc(C(=O)NNC(=S)NC(=O)c2ccco2)cc1", "hERG current change (%, negative = inhibition) at 1uM": 13.6}]}]}
